Measured values: publication PMC4336329 (PLoS ONE, 2015)
The whole screen tested about 310,000 compounds, of which about 2,200 (0.71%) showed an effect of 50% or more. The effect is printed as a negative number. The list shows a part of the results.

biological target: human ether-à-go-go-related gene (hERG) potassium channel (human, UniProt Q12809); test: primary screen, population patch clamp on CHO cells stably expressing hERG
Sequence (Q12809 whole entry, looked up): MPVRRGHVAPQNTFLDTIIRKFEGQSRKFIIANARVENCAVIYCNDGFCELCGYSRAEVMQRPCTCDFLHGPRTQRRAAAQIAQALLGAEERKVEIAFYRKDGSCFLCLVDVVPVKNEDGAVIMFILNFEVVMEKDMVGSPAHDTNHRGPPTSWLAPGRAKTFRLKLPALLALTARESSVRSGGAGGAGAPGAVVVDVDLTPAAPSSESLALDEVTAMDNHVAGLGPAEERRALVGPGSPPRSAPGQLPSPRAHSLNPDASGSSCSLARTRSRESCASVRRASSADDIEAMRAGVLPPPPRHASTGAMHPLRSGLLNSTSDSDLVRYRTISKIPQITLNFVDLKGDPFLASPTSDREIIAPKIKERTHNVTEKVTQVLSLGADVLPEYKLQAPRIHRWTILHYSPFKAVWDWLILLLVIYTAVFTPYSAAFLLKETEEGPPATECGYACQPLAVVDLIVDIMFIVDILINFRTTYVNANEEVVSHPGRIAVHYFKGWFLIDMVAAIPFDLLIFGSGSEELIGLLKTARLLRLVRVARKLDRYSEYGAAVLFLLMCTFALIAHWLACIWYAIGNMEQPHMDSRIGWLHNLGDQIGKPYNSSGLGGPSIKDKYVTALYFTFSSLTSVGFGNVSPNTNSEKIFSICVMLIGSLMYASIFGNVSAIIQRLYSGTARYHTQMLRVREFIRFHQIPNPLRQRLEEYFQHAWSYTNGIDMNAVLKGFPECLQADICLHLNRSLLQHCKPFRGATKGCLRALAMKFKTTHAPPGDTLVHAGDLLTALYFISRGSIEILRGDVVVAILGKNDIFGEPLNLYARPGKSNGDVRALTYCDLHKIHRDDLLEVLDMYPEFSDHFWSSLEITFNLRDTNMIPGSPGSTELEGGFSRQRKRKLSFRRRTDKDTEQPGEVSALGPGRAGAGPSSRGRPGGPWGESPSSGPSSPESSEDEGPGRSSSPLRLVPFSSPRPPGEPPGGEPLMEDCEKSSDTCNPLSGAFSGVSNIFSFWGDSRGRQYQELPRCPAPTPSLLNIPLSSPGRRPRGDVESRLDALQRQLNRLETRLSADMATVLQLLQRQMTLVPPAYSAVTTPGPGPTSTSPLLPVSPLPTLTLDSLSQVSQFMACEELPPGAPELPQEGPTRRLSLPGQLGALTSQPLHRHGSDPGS

| SMILES | hERG current change (%, negative = inhibition) at 1uM |
| --- | --- |
| COP(=O)(CC(=O)O)c1ccccc1 (centres unmarked) | -4.94% |
| Cc1cc(C(=O)COc2ccc(Cl)cc2Br)c(C)n1C | 16.4% |
| CC1(C)NC(=O)N(CCCCOc2ccc(Cl)cc2C=O)C1=O | 9.37% |
| Cc1c(NC(=O)Nc2ccc([N+](=O)[O-])cc2)c(=O)n(-c2ccccc2)n1C | 5.1% |
| NC(=O)[C@@H]1CC2(CC(c3cccc(NC(=O)COc4ccc(Cl)cc4)c3)=NO2)CN1C(=O)c1ccccc1 (some centres unmarked) | 9.23% |
| FC(F)(F)c1ccc2c(c1)[nH]c(=S)n2C1CC1 | 12.2% |
| Cc1cccc(NC(=O)c2sc3nc(-c4ccccc4)cn3c2C)n1 | 1.46% |
| CCCn1c(N)c(C(=O)CSc2nc3ccccc3c(=O)n2-c2ccc(OC)cc2)c(=O)[nH]c1=O | 7.57% |
| CC1(C)NC(=O)N(CNc2cc(Cl)ccc2Cl)C1=O | 12.9% |
| COc1cc(/C=C2\SC(=S)N(CCCCC(=O)O)C2=O)ccc1OS(=O)(=O)c1ccc(C)cc1 | 17.2% |
| O=C(Nc1ccc(F)cc1)C1CCN(S(=O)(=O)c2cccs2)CC1 | 3.71% |
| O=C(O)CNC(=O)c1ccc(NC(=O)/C(=C/c2cccc([N+](=O)[O-])c2)NC(=O)c2ccco2)cc1 | 12.9% |
| CC1CC(=O)Nc2ccccc2S1(=O)=O (centres unmarked) | 7.5% |
| CC1Cc2ccccc2N1C(=O)COC(=O)CNC(=O)c1ccc(Br)o1 (centres unmarked) | -10.7% |
| Cc1ccc(C)c(OCCC(=O)Nc2cccc(S(=O)(=O)NC3=NCCCCC3)c2)c1 | 8.74% |
| CCn1c2ccccc2c2cc(C3C(C#N)=C(C)NC(C)=C3C#N)ccc21 | 7.15% |
| COc1ccc(-c2nnn(CC(=O)NCc3ccc4c(c3)OCO4)n2)cc1OC | 12.6% |
| CSc1nc2cc(C)nn2c(-c2ccccc2Cl)c1C#N | 8.86% |
| O=C(O)CNC(=O)C(CS)Cc1ccccc1 (centres unmarked) | 11.5% |
| Cc1c(O)nc(SCC(=O)Nc2ccc3c4c(cccc24)CC3)n(-c2ccc(F)cc2)c1=O | 4.92% |
| Cc1cc(C(=O)NNC(=O)c2nn(C)c(=O)c3ccccc23)c(C)o1 | 6.01% |
| CCCOC(=O)C1=C(C)N(C)C(=O)NC1c1cc2c(cc1Br)OCO2 (centres unmarked) | 8.33% |

| SMILES | hERG current change (%, negative = inhibition) at 1uM |
| --- | --- |
| NCCSc1c(-c2ccccc2)[nH]c2ccccc12 | 9.38% |
| O=C(NCc1cccs1)c1ccc2c(c1)OCCO2 | 13.1% |
| O=C(CN1CCC(C(=O)c2ccc(Cl)cc2)CC1)NC1CCCC1 | 2.16% |
| C[C@H](NC(=O)[C@@H]1Cc2ccccc2CN1)C(=O)Nc1ccc2c(c1)OCO2 | 19.1% |
| CC(C)Cc1nnc(NC(=O)CC(=O)Nc2ccccc2C(=O)O)s1 | 10.3% |
| O=C(Cn1cnc([N+](=O)[O-])n1)NCc1ccccc1 | 3.67% |
| CCc1nc(C)cn1S(=O)(=O)c1cc(F)ccc1OC | 16.9% |
| CCOC(=O)CCNC(=O)Nc1ccc2nc(C)n(Cc3ccc(Cl)cc3)c(=O)c2c1 | -2.25% |
| CCOC(=O)c1cc(-c2csc(N/N=C/c3ccccc3Cl)n2)on1 | 2.17% |
| CCn1c(SCC(=O)N(C(C)C)C(C)C)nnc1-c1cc2ccccc2cc1O | 7.68% |
| O=C(Nc1ccccc1)Nc1nnc(-c2ccccc2)s1 | 5.59% |
| Cc1cc(C(=O)CSc2nnc(-c3ccccc3)n2Cc2ccc3c(c2)OCO3)c(C)n1C | 14.5% |
| N#Cc1ccccc1NC(=O)c1ccc2c(c1)OCCO2 | 7.25% |
| Cc1c(NC(=O)CSc2nnc(-c3ccncc3)o2)c(=O)n(-c2ccccc2)n1C | 3.76% |
| CCCOc1ccc(-c2c(C(=O)N/N=C(\C)c3cccnc3)nnn2-c2nonc2N)cc1 | 13.1% |
| COc1ccc(C(CNC(=O)c2cccc(S(=O)(=O)Nc3cccc(C)c3)c2)N2CCOCC2)cc1 (centres unmarked) | 4.48% |
| COC(=O)c1ccc(NC(=O)CSc2nc(=O)cc(N)n2-c2ccccc2)cc1 | 10.7% |
| Cc1cc(Nc2ccc(Br)cc2F)n2ncnc2n1 | 4.12% |
| CCN(CC)S(=O)(=O)c1ccc(NC(=O)COC(=O)c2ccc(NC(=O)CC#N)cc2)cc1 | 17% |
| COC(=O)CSc1nc2c(cnn2-c2ccc(Cl)cc2)c(=O)[nH]1 | 16.9% |
| CC(=O)N1CCN(c2ccccc2NC(=O)c2ccco2)CC1 | -14.4% |
| O=C(O)C(O)(c1ccccc1)C1CCCC1 (centres unmarked) | 16.5% |

| SMILES | hERG current change (%, negative = inhibition) at 1uM |
| --- | --- |
| COc1ccc(CC(=O)N2CCN(c3ccccc3)CC2)cc1 | 14.6% |
| Cc1c(C(C)NC(=O)Nc2ccc(F)cc2F)cnn1C (centres unmarked) | 18.8% |
| COCCNC(=O)CCc1nnc(Cc2ccc(-c3ccccc3)cc2)o1 | 13.7% |
| COc1ccc(CCNC(=O)CN2CCN(S(=O)(=O)c3ccc(Cl)cc3)CC2)cc1OC | -3.42% |
| O=c1[nH]nc(SCc2nnc(-c3cccc(Cl)c3)o2)n1C1CCCCC1 | 12.1% |
| CC(C)C(NC(=O)c1ccc(Cl)cc1)C(=O)NC1=NCCS1 (centres unmarked) | 16.2% |
| CN(C)CCNC(=O)c1c(NC(=O)c2ccccc2)sc2c1CCCC2 | 10.9% |
| C=CCN1C(=O)c2ccc(C(=O)N(CC)CC(=O)Nc3ccc(OC)cc3)cc2C1=O | 3.97% |
| Cc1ccc(Nc2nnc(SCc3cc(=O)n4cc(C)ccc4n3)s2)cc1 | -17.1% |
| O=S(=O)(c1ccccc1)c1nc(-c2ccco2)oc1NCCCn1ccnc1 | -26.3% |
| O=C(CN1C(=O)CN=C(c2ccccc2)c2ccccc21)NCc1ccco1 | 10.9% |
| Cc1cc(C)cc(N(C(=O)c2ccccn2)C(C(=O)NC2CCCCC2)c2cccs2)c1 (centres unmarked) | 4.39% |
| CC(CC(F)(F)F)N1CCC(n2nccc2NC(=O)CCCc2ccccc2)CC1 (centres unmarked) | -0.538% |
| COc1cc2c3c(c1OC)C1(C=CC(=NO)C=C1)CC3N(C(C)=O)CC2 (centres unmarked) | 15.7% |
| CCOC(=O)c1cc(C(C)=O)c(=O)[nH]c1C | 7.09% |
| Brc1ccc(-n2cccc2/C=N/n2cnnc2)cc1 | -5.43% |
| COc1ccc2cc(C(=O)C3CCCN(C(=O)CCc4ccccn4)C3)ccc2c1 (centres unmarked) | -5.66% |
| CC(=O)c1ccc(N2CCN(C(=O)CCS(=O)(=O)c3ccc(C)cc3)CC2)cc1 | -9.1% |
| O=C(COc1ccc2ccc(=O)oc2c1)Nc1c(Cl)cccc1C(F)(F)F | 8.4% |
| CCN1C(=O)[C@@H]2[C@@H](c3ccc(-c4ccc(C(C)=O)cc4)c(OC)c3)N3CCCC[C@@]3(C(=O)OC)[C@@H]2C1=O.O=C(O)C(F)(F)F | 18.8% |
| Cc1ccc(O)c(C(=O)c2coc(=N)c(C(=O)NC(C)C)c2)c1 | -14.3% |
| CS(=O)(=O)CCC(C(=O)n1nnc2ccccc21)N1C(=O)c2ccccc2C1=O (centres unmarked) | -3.98% |

| SMILES | hERG current change (%, negative = inhibition) at 1uM |
| --- | --- |
| NC(=O)/C(=C/c1ccco1)NC(=O)/C=C/c1ccccc1 | -1.45% |
| Cn1cnnc1SCc1ccccc1Br | 12.6% |
| O=C(CCSc1nnnn1-c1ccccc1)N1CCOCC1 | 1.86% |
| N#Cc1nc(-c2ccccc2Cl)oc1N1CCN(C(=O)c2ccco2)CC1 | 2.44% |
| CCOC(=O)C1Cc2ccccc2C(=O)O1 (centres unmarked) | 15.1% |
| CCn1c(=O)c(-c2nc3ccccc3[nH]2)c(O)c2ccccc21 | 2.38% |
| Cl.O=C(NCCN1CCOCC1)c1cn(-c2ccccc2)nc1-c1cccs1 | 6.73% |
| Cc1cc2c(cc1S(=O)(=O)NCc1ccccc1)n(C)c(=O)c(=O)n2C | 2.88% |
| Cn1c(N)c(C(=O)COC(=O)CNC(=O)c2ccccc2Cl)c(=O)n(C)c1=O | -4.52% |
| Cc1ccc(NC(=O)NNC(=O)c2cccs2)cc1 | -8.12% |
| COc1ccc(/C=C/c2onc(C)c2S(=O)(=O)N2CCC(C(=O)N3CCC(C)CC3)CC2)cc1 | 10.6% |
| Cc1cc(C)c(NC(=O)CNC(=O)c2cc([N+](=O)[O-])ccc2N2CCOCC2)c(C)c1 | 7.99% |
| Cc1occc1C(=O)N1CCN(S(=O)(=O)c2ccc(F)cc2)CC1 | -1.47% |
| O=C1CCc2cc(S(=O)(=O)NCc3ccccc3)cc3c2N1CC3 | 6.02% |
| Cc1cccc(C)c1NC(=O)CNC(=O)c1ccc2ccccc2n1 | 6.14% |
| O=c1c2nnn(-c3ccc(Cl)cc3)c2ncn1Cc1ccccn1 | 0.0284% |
| Cc1cc(NS(=O)(=O)c2ccc(NC(=S)NCc3ccccc3)cc2)no1 | 8.14% |
| O=C(Nc1ccc(N2CCOCC2)cc1)C1(S(=O)(=O)c2ccccc2)CC1 | 16.4% |
| CN(CC(=O)Nc1ccc(N2CCOCC2)cc1)CC(=O)Nc1ccc(N2CCOCC2)cc1 | 9.97% |
| CC(C)c1ccc(C(=O)N(c2ccccn2)C(C)c2ccco2)cc1 (centres unmarked) | -3.01% |
